The source of these data is publication PMC4336329 (PLoS ONE, 2015).

Structures are written as SMILES. Among all 310,000 compounds or so, about 14,000 (4.5%) showed an effect of 50% or more. The effect is printed as a negative number. The list shows a part of the results.
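Also: peak tail current of the secondary pulse compared with the same well before compound.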

In the test the target is human ether-à-go-go-related gene (hERG) potassium channel (human, UniProt Q12809). In words: primary screen, population patch clamp on CHO cells stably expressing hERG.
Chain of human ether-à-go-go-related gene (hERG) potassium channel (Q12809 whole entry, looked up): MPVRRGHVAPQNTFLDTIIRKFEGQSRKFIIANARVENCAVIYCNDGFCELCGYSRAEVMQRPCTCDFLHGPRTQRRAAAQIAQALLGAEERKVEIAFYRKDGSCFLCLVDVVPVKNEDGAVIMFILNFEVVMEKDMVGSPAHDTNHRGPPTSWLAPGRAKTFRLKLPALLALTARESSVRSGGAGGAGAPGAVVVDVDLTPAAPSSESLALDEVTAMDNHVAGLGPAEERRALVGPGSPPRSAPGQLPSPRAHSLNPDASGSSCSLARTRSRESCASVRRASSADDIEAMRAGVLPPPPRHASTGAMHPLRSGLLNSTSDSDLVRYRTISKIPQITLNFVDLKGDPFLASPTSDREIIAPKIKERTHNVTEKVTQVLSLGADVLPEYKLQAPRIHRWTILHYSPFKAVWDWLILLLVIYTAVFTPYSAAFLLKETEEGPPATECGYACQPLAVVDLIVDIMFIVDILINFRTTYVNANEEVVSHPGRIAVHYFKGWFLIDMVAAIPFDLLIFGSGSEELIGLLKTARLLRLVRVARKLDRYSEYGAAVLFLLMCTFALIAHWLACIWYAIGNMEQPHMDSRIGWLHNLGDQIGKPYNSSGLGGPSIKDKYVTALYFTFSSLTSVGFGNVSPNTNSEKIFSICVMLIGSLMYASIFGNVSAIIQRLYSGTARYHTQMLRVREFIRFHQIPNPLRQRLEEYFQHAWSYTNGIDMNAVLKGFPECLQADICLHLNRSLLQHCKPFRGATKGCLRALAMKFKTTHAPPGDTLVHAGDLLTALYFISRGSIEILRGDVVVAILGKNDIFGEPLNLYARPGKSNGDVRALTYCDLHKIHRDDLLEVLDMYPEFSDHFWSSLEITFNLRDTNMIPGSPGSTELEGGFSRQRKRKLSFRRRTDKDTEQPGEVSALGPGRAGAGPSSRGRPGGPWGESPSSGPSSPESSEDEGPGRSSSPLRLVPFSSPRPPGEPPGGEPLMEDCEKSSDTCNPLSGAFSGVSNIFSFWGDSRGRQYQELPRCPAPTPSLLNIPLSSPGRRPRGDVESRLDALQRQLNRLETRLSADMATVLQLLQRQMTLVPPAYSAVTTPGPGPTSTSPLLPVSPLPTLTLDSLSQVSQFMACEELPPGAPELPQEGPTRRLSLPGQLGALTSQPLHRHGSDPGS
With `CCOc1ccc(CC(=O)NCCc2cnc[nH]2)cc1`, the “hERG current change (%, negative = inhibition) at 10uM” value was 4.45%. For the molecule `CCn1nc(C)c(C(=O)Nc2cc(Oc3ccc(Cl)cc3)cc([N+](=O)[O-])c2)c1C`, the “hERG current change (%, negative = inhibition) at 10uM” value is recorded as -2.93%. Take `CC(C)(C)NC(=O)CN1CCC(O)(c2ccccc2)CC1`: the “hERG current change (%, negative = inhibition) at 10uM” value turned out to be 13.5%. To `C=CCN=c1sc(C(=O)OC)cc(=O)n1CC=C` belongs 6.63%. To `COc1ccc(NS(=O)(=O)c2ccc3c(c2)N(C(C)=O)CCO3)cc1` belongs 17.8%; to `CCOc1ccc(S(=O)(=O)N2CCC(C(=O)NCc3ccccn3)CC2)cc1C`, -1.61%. Next, `C=CCn1c2ccccc2c(=O)c2cc(C#CC3(O)CCCCC3)ccc21`: 6.61%.

Turning to `CSc1nnc2c(n1)OC(C)N(C(=O)c1ccccc1)c1ccccc1-2` (stereo not drawn), the “hERG current change (%, negative = inhibition) at 10uM” value came to 2.52%. To `COc1cc(/C=C2\NC(=O)NC2=O)cc(Br)c1OC` belongs 1.71%; to `CN(Cc1ccccc1)C(=O)c1[nH]cnc1C(=O)Nc1ccon1`, -1.05%; to `CC(C)CC(=O)N1CCN(S(C)(=O)=O)CC1`, 5.15%. Next, `COc1cc2c(cc1OC)CC(=O)N(C)CC2`: 3.16%; `COc1ccc(-n2nnnc2SCC(=O)c2ccc3c(c2)OCCO3)c(OC)c1`: 0.516%; `CC(Sc1nnc(CNC(=O)c2ccco2)n1C)C(=O)Nc1nccs1` (stereo not drawn): 18%. To `COc1cccc(Nc2nc(NCCO)nc(N3CCCC3)n2)c1` belongs -15.8%; to `COc1cc(NS(=O)(=O)c2ccc3[nH]c(=O)oc3c2)cc(OC)c1`, 14.3%. Take `CN(C)c1ccc(C(=O)OCC(=O)c2cccs2)cc1`: the “hERG current change (%, negative = inhibition) at 10uM” value came to 2.74%.

Take `CC(C)CCCC(C)CCOC(=O)CN1CCCC1` (stereo not drawn): the “hERG current change (%, negative = inhibition) at 10uM” value amounted to 11.5%. For `Cc1ccc(NC(=O)C2CCN(C(=O)c3ccc(F)cc3)CC2)nc1`, the “hERG current change (%, negative = inhibition) at 10uM” value is on record as -15.4%. Next, `O=C(CCC1CCCC1)N1CCN(C(=O)c2ccco2)CC1`: -6.3%; `CCCCn1c(=O)c(CCC(=O)OCC(=O)NC(=O)NCCOC)nc2ccccc21`: -5.88%; `COc1ccccc1-c1c(C(F)(F)F)oc2cc(OC(=O)c3ccccc3[N+](=O)[O-])ccc2c1=O`: 16.6%. To `CCC1c2ccc(C)n2CCN1C(=O)Nc1ccccc1C(=O)OC` (stereo not drawn) belongs 6.11%. Turning to `CN1CC(=O)N(CC(=O)Nc2ccc(F)cc2)c2ccccc2C1=O`, the “hERG current change (%, negative = inhibition) at 10uM” value is 15%. To `O=C(NCc1ccccc1)Nc1cccn(Cc2ccc(F)cc2)c1=O` belongs -5.34%; to `COc1ccccc1NC(=O)Cn1nc(-c2ccncc2)nc1SCC(=O)NC1CCCC1`, -20.2%; to `O=C(COc1ccccc1)N=C1SC2CS(=O)(=O)CC2N1CCc1ccccc1` (stereo not drawn), 9.55%.

As to `Cc1ccc(S(=O)(=O)NCC(=O)N(CC(=O)NC(C)(C)C)Cc2ccc3c(c2)OCO3)cc1`, the “hERG current change (%, negative = inhibition) at 10uM” value came out at 14.8%. To `COc1ccc(-c2cc(C(F)F)n3ncc(C(=O)N4CCCc5ccccc54)c3n2)cc1` belongs 11.2%; to `O=C(Nc1ccc(N2CCOCC2)cc1)c1ccc(-c2ccccc2[N+](=O)[O-])o1`, 15.9%; to `Nc1c(C(=O)O)sc2nc(-c3ccc(F)cc3)cc(-c3ccccc3)c12`, 8.62%. To `O=C(CNC(=S)NC(=O)c1cccs1)c1ccccc1` belongs 0.111%. `O=C1c2cccc3cccc(c23)C(=O)N1CCCSc1ncn[nH]1`: the “hERG current change (%, negative = inhibition) at 10uM” value is -7.77%. To `O=S(=O)(NCCCO)c1ccc2c(c1)Cc1cc(S(=O)(=O)NCCCO)ccc1-2` belongs 4.49%. To `Cc1ccc(S(=O)(=O)Cn2nnnc2C(C(C)C)N2CCN(Cc3ccco3)CC2)cc1` (stereo not drawn) belongs 17.9%; to `CCOC(=O)c1sc(SC)c2c1CCC/C2=N/OC`, 5.08%; to `COc1ccc(-c2nnc(SCC(=O)N3CCCC3)o2)cc1`, 7.58%. To `COc1cc(C2NC(=O)NC(C)=C2C(=O)NCc2ccccc2)c(Cl)cc1O` (stereo not drawn) belongs 1.65%; to `CCCCCCCCO`, 17.4%. Turning to `O=C(CCNC(=O)c1ccc(Cl)cc1)Nc1cccc(S(=O)(=O)N2CCCCCC2)c1`, the “hERG current change (%, negative = inhibition) at 10uM” value is on record as -57.3%. Next, `Fc1ccc(N2CCN(Cc3cnc(N4CCOCC4)s3)CC2)cc1`: -20%; `Cc1ccc(S(=O)(=O)N2CCOC2CNC(=O)C(=O)NCCCN2CCOCC2)cc1` (stereo not drawn): -0.206%. Next, `O=S(=O)(Nc1nc2ccccc2nc1NCc1ccco1)c1ccc(Cl)cc1`: 5.49%; `c1cc(-c2nn[nH]n2)ccc1CN1CCCCC1`: 7.76%; `CC1CCCN(C(=O)C2CCN(S(=O)(=O)c3cccc4cccnc34)CC2)C1` (stereo not drawn): -7.15%. On to `N#Cc1cc([N+](=O)[O-])ccc1Oc1cccc(/C=N/NC(=O)c2cccc(Cl)c2)c1`, for which the “hERG current change (%, negative = inhibition) at 10uM” value is -20.3%. To `CCOC(=O)CN1c2ccccc2NC(=O)CC1C` (stereo not drawn) belongs -2.79%.

Take `Cc1ccc(N(CC(=O)NC2CCCC2)C(=O)c2ccc(C)s2)cc1`: the “hERG current change (%, negative = inhibition) at 10uM” value is recorded as -7%.

For `O=c1c2ccccc2[nH]c(=S)n1Cc1ccccc1`, the “hERG current change (%, negative = inhibition) at 10uM” value is recorded as 12.9%.

As for `Cc1ccc(NC(=S)N(Cc2ccco2)C(C)c2cccs2)c(Cl)c1` (stereo not drawn), the “hERG current change (%, negative = inhibition) at 10uM” value is listed as 4.28%. To `CN(C)c1ccc(C(c2nnnn2C(C)(C)C)N2CCN(C(=O)c3ccco3)CC2)cc1` (stereo not drawn) belongs -13.8%; to `Cc1ccc(OCC(=O)Nc2ccc3c(c2)C(=O)NC3=O)c(C)c1`, 9.45%. Next, `CCn1c(SC)nnc1-c1nn(-c2ccccc2)ccc1=O`: 11.3%; `COc1ccc2nc(NC(=O)CSc3nnc(-c4ccoc4C)n3C)sc2c1`: -8.85%. To `Cc1ccc2c(C)c(C(=O)Nc3c(C)n(C)n(-c4ccccc4)c3=O)oc2c1` belongs -2.96%; to `CCOC(=O)C1CCN(C(=O)CCc2ccc(S(=O)(=O)NC(C)C)cc2)CC1`, -0.614%; to `O=C(Nc1nc2ccccc2s1)c1ccccc1`, 48%.
